This is one part of the list. Repeats are few or missing, and single values can be far off.
Tests used:
Assay in all cases: cell viability relative to vehicle (% of vehicle); basal-like triple-negative breast cancer lines; higher = less cytotoxic
Conditions in all cases: 10 µM; 72 h
HCC-1143 = test system: HCC-1143
HCC-1187 = test system: HCC-1187
MDA-468 = test system: MDA-468
SUM-149 = test system: SUM-149
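Further: stably firefly luciferase-GFP labeled cells in 96-well plates, viability read as luciferase photon flux after d-luciferin addition, treated wells normalized to vehicle wells, single-dose high-throughput screen.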

Row | Compound | cell viability (HCC-1143) | cell viability (HCC-1187) | cell viability (MDA-468) | cell viability (SUM-149)
1 | CC1CNCCCN1S(=O)(=O)c1cccc2cncc(F)c12.Cl.O.O (stereo not given) | 74.7 | 79.5 | 90.9 | 66.2
2 | CC(NC(=O)Cc1cc(F)cc(F)c1)C(=O)NC(C(=O)OC(C)(C)C)c1ccccc1 (stereo not given) | 94.8 | 98.3 | 97.9 | 121
3 | CCN(CC)C(=O)C(C#N)=Cc1cc(O)c(O)c([N+](=O)[O-])c1 [Entacapone] | 71.3 | 90.9 | 113 | 88
4 | CN(Cc1cnc2nc(N)nc(N)c2n1)c1ccc(C(=O)NC(CCC(=O)O)C(=O)O)cc1 (stereo not given) [Methotrexate] | 84 | 73.8 | 56.3 | 128
5 | CC(Oc1cc(-c2cnn(C3CCNCC3)c2)cnc1N)c1c(Cl)ccc(F)c1Cl [(R)-Crizotinib] | 49.7 | 30.2 | 23.2 | 35.3
6 | CN1CCN(c2nc(C3=C(c4c[nH]c5ccccc45)C(=O)NC3=O)c3ccccc3n2)CC1 [Sotrastaurin (AEB071)] | 110 | 87.6 | 112 | 107
7 | C=C1C(=CC=C2CCCC3(C)C2CCC3C(C)CCCC(C)(C)O)CC(O)CC1O (stereo not given) [Calcitriol] | 68.5 | 122 | 80.9 | 78.4
8 | Cl.c1ccc2c(c1)CCCC2C1=NCCN1 (stereo not given) [Tetrahydrozoline HCl] | 74.9 | 98.8 | 106 | 87.1
9 | Cl.Cl.O=C(O)COCCN1CCN(C(c2ccccc2)c2ccc(Cl)cc2)CC1 (stereo not given) [Cetirizine DiHCl] | 74.3 | 71.9 | 96.6 | 131
10 | O=c1ccc2ccccc2o1 [Coumarin] | 94 | 88.7 | 108 | 108
11 | Cc1cc2c(s1)=Nc1ccccc1NC=2N1CCN(C)CC1 [Olanzapine] | 72.4 | 85 | 107 | 93
12 | O=C(O)Cc1cc(I)c(Oc2ccc(O)c(I)c2)c(I)c1 [Tiratricol] | 69.4 | 95.7 | 106 | 98.9
13 | Cn1c(=O)c2c(ncn2CC2OCCO2)n(C)c1=O [Doxofylline] | 75.1 | 98 | 103 | 116
14 | N#Cc1ccc(C(c2ccc(C#N)cc2)n2cncn2)cc1 [Letrozole] | 110 | 106 | 104 | 96.8
15 | Clc1ccc(C(Cn2ccnc2)OCc2ccsc2Cl)c(Cl)c1 (stereo not given) [Tioconazole] | 97.8 | 79.3 | 97.6 | 103
16 | COc1cc(C2c3cc4c(cc3C(OC3OC5COC(c6cccs6)OC5C(O)C3O)C3COC(=O)C23)OCO4)cc(OC)c1O (stereo not given) [Teniposide] | 86.8 | 83.9 | 107 | 86.7
17 | COCCCN1CCC(NC(=O)c2cc(Cl)c(N)c3c2OCC3)CC1 [Prucalopride] | 72 | 86.5 | 105 | 101
18 | Nc1nc(=O)c2c([nH]1)NCC(CNc1ccc(C(=O)NC(CCC(=O)[O-])C(=O)[O-])cc1)N2C=O.O.O.O.O.O.[Ca+2] (stereo not given) [Leucovorin Calcium] | 75.1 | 81.8 | 78.8 | 83.5
19 | Cc1nc(-c2ccc(OCC(C)C)c(C#N)c2)sc1C(=O)O [Febuxostat] | 25.6 | 26.1 | 38.5 | 36.1
20 | O=c1[nH]c(=O)n(C2CC(O)C(CO)O2)cc1F (stereo not given) [Floxuridine] | 79.6 | 39 | 31.3 | 50.8
21 | Cc1ccc2c(Cl)cc(Cl)c(O)c2n1 [Chlorquinaldol] | 68.9 | 89.3 | 95.6 | 84.5
22 | CO[C@H]1O[C@@H]2OC3(C)CC[C@H]4[C@H](C)CC[C@@H]([C@H]1C)[C@@]24OO3 [Artemether] | 71.6 | 73.9 | 94.8 | 102
23 | NC(=O)OCC(COC(N)=O)c1ccccc1 [Felbamate] | 79.5 | 98.8 | 96.2 | 108
24 | NC(=O)c1cnccn1 [Pyrazinamide] | 85.5 | 85.6 | 99.7 | 107
25 | CO[C@H]1C[C@@H]2CC[C@@H](C)[C@@](O)(O2)C(=O)C(=O)N2CCCC[C@H]2C(=O)O[C@H]([C@H](C)C[C@@H]2CC[C@@H](O)[C@H](OC)C2)CC(=O)[C@H](C)/C=C(\C)[C@@H](O)[C@@H](OC)C(=O)[C@H](C)C[C@H](C)/C=C/C=C/C=C/1C [Rapamycin (Sirolimus)] | 93.6 | 84 | 72.4 | 130
